Laboratory results taken from the BET-seq Pho4 binding data (Le et al. 2018).
The list shows a part of the results. These are noisy estimates, calculated here from bound and input reads.

Biological target: T1, Pho4 (S. cerevisiae) (UniProt P07270)
T1 sequence: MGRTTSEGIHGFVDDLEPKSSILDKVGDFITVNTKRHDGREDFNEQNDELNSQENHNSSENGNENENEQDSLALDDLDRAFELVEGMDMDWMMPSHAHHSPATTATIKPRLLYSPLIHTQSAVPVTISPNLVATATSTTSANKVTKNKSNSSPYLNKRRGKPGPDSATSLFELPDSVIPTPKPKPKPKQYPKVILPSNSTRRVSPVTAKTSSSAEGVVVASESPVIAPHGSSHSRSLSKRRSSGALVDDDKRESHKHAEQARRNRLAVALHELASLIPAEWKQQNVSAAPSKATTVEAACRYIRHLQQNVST
Experiment: relative binding free energy (BET-seq); higher = weaker binding
Conditions: reference: library average

Sequence	relative binding free energy
TCATTCACGTGTCGGG	1.51 kJ/mol
CGTGGCACGTGGCGGA	-0.418 kJ/mol
TGGAGCACGTGGCAGA	-0.586 kJ/mol
TAGTGCACGTGATTGG	0.0418 kJ/mol
GCCTTCACGTGGGGGA	1.21 kJ/mol
GAGTACACGTGGTGCA	0.126 kJ/mol
TTATACACGTGCTTGG	-0.418 kJ/mol
TGTTACACGTGTTATC	0.628 kJ/mol
TGTTTCACGTGTCGGA	1.05 kJ/mol
ATAGTCACGTGGTGAA	0.293 kJ/mol
ATTTTCACGTGGCGAT	0.837 kJ/mol
TTTGGCACGTGGGGTA	-1.09 kJ/mol
TTTTTCACGTGATCAA	0.92 kJ/mol
GTAAGCACGTGAAGTG	1.05 kJ/mol
CGGCTCACGTGATGTG	1.34 kJ/mol
AGGAGCACGTGGGAAT	-0.335 kJ/mol
GGTTACACGTGGTAGC	0.502 kJ/mol
AGAGGCACGTGCAGGT	-0.711 kJ/mol
GGGTTCACGTGAGAGA	1.55 kJ/mol
TGGCTCACGTGGTGCG	0.251 kJ/mol
AGTTACACGTGTAATG	0.46 kJ/mol
GATTACACGTGTTTTT	1.09 kJ/mol
AGTATCACGTGGTTCG	0.167 kJ/mol
TTACTCACGTGGAAGT	1.34 kJ/mol
ATGGTCACGTGAGGGC	1.17 kJ/mol

Sequence	relative binding free energy
GTTTACACGTGGGTGT	0.209 kJ/mol
TGGCGCACGTGGTGGG	-0.502 kJ/mol
GGAGACACGTGTGGTA	0.126 kJ/mol
ATTAACACGTGACGGT	0.753 kJ/mol
GGTATCACGTGTCGAG	0.586 kJ/mol
GGTTTCACGTGGGATG	1.26 kJ/mol
TACTGCACGTGAGGGA	0.753 kJ/mol
GACAGCACGTGGTGGA	0.0837 kJ/mol
ACGGCCACGTGAGGTT	1.51 kJ/mol
AGATTCACGTGTTAGT	1.34 kJ/mol
CATGTCACGTGTAAGT	0.669 kJ/mol
CGTATCACGTGATGGT	0.962 kJ/mol
AGGGGCACGTGGGTCG	-0.962 kJ/mol
GCGTCCACGTGTTGGT	0.586 kJ/mol
TGGTTCACGTGTAGAC	1.34 kJ/mol
ATGTGCACGTGGAGAT	-0.502 kJ/mol
TGTCTCACGTGCGGTT	0.46 kJ/mol
GTGAGCACGTGTATGA	0.126 kJ/mol
TTATTCACGTGTTTAC	1 kJ/mol
CTGTCCACGTGATGGT	0.795 kJ/mol
ACATTCACGTGATTGA	2.05 kJ/mol
GATACCACGTGTTGGT	-0.209 kJ/mol
TACTTCACGTGTAAGT	1.17 kJ/mol
GTGGACACGTGACGGT	0.92 kJ/mol
TTTAGCACGTGGGAAC	0.126 kJ/mol

Sequence	relative binding free energy
GTTTCCACGTGAATTT	1.3 kJ/mol
GAGGGCACGTGAGAAT	0.669 kJ/mol
TAGCGCACGTGAGTAT	0.335 kJ/mol
AGGTTCACGTGTGTTG	1.17 kJ/mol
GAACGCACGTGGGGTT	-0.669 kJ/mol
TTGGACACGTGCAGTC	0.962 kJ/mol
CGCTCCACGTGGGGGG	-0.92 kJ/mol
ATTGGCACGTGTTGAC	-0.293 kJ/mol
GGATTCACGTGAGCTG	1.34 kJ/mol
TTGCCCACGTGGGTGT	-1.46 kJ/mol
TTTGTCACGTGCGGAT	0.335 kJ/mol
AGATTCACGTGTGGAA	1.21 kJ/mol
AGTTGCACGTGTATGT	0.544 kJ/mol
TTGGGCACGTGAGGAT	0.628 kJ/mol
AATTGCACGTGTTGTT	0.335 kJ/mol
CATATCACGTGTTTGG	0.837 kJ/mol
TCATTCACGTGTTAGG	1.26 kJ/mol
CGTTGCACGTGGTACG	-0.418 kJ/mol
CTTATCACGTGCGTGG	0 kJ/mol
CGTGTCACGTGTTTCA	0.335 kJ/mol
TTAATCACGTGAGCGT	0.962 kJ/mol
ATTATCACGTGGGAGA	-0.251 kJ/mol
TGGCGCACGTGAGGTG	0.126 kJ/mol
TAGCTCACGTGTGATG	0.795 kJ/mol
ATTAGCACGTGGGGGA	-0.669 kJ/mol

Sequence	relative binding free energy
TTATTCACGTGGGGGC	1 kJ/mol
GATACCACGTGGGTGG	-0.753 kJ/mol
GTGACCACGTGTTGTG	-0.167 kJ/mol
TATGCCACGTGTAGAG	0.0837 kJ/mol
ATTGGCACGTGTAGTA	-0.251 kJ/mol
ATGGTCACGTGATCAG	0.335 kJ/mol
GTGCGCACGTGAGGGG	0.46 kJ/mol
ATGGACACGTGGGACT	-0.167 kJ/mol
AAAGGCACGTGTATAT	-0.167 kJ/mol
TTGCACACGTGTATTT	0.669 kJ/mol
GCTGGCACGTGGATGT	0.335 kJ/mol
AGTTACACGTGAGGGT	0.962 kJ/mol
ACAGTCACGTGGAGTT	0.293 kJ/mol
TGGGACACGTGCGGTT	0.126 kJ/mol
GGTTTCACGTGAAGTA	1.59 kJ/mol
TGGTGCACGTGCATTG	-0.0418 kJ/mol
ATGGACACGTGGTCGA	-0.167 kJ/mol
CTTGGCACGTGCTGTT	-0.711 kJ/mol
TATGACACGTGGTGTT	0.0418 kJ/mol
AAAGGCACGTGGAGTC	0.251 kJ/mol
GTAAGCACGTGAGGCT	0.879 kJ/mol
GGTGTCACGTGTGATC	0.879 kJ/mol
TAAGACACGTGGGGGG	-0.209 kJ/mol
ATCGGCACGTGTGTAT	0.377 kJ/mol
ATGGACACGTGGATGT	0.92 kJ/mol

Sequence	relative binding free energy
GTATTCACGTGAGGAG	1.88 kJ/mol
TATGGCACGTGGGGCG	-0.879 kJ/mol
TATATCACGTGGTGGA	0.46 kJ/mol
GGGATCACGTGCCGGG	0.837 kJ/mol
GTAGGCACGTGTCAGT	-0.0837 kJ/mol
GTTGCCACGTGAGTGT	0.711 kJ/mol
TGATGCACGTGGAGTA	-0.377 kJ/mol
TTGAACACGTGCGTGT	0.0418 kJ/mol
TGGGACACGTGGATAA	0.335 kJ/mol
CGGTGCACGTGGTCTT	-0.251 kJ/mol
ATTTTCACGTGGGCTG	0.962 kJ/mol
TCGTTCACGTGTTGAA	1.17 kJ/mol
AGCGTCACGTGTAGTT	0.251 kJ/mol
CGGTGCACGTGCAGGT	-0.251 kJ/mol
TGTGGCACGTGAGCGA	0.0418 kJ/mol
TTGATCACGTGGGAAA	1.34 kJ/mol
AGGATCACGTGGTGAA	0.335 kJ/mol
GAGGTCACGTGACGTT	1.3 kJ/mol
TGTTACACGTGTGCTA	0.167 kJ/mol
AACATCACGTGGGGAT	0.753 kJ/mol
TTGGTCACGTGAGCAG	0.962 kJ/mol
AAAGTCACGTGCTTTT	0.418 kJ/mol
AGGTTCACGTGGTGCA	0.669 kJ/mol
TCGAGCACGTGATGAG	0.92 kJ/mol
ATCGTCACGTGGTGGT	0.0837 kJ/mol

Sequence	relative binding free energy
AAGCTCACGTGTGTGA	1.21 kJ/mol
TGTAGCACGTGAAAGT	0.586 kJ/mol
GATTACACGTGGATTG	-0.0837 kJ/mol
GAGGGCACGTGTGGGC	-0.0418 kJ/mol
TAGGTCACGTGTCTGT	0.669 kJ/mol
GTGCTCACGTGGAGTA	1.21 kJ/mol
CCGGTCACGTGGGTAT	0.209 kJ/mol
GAGAGCACGTGGGCGT	-0.167 kJ/mol
TTGTACACGTGTTCTG	0.0418 kJ/mol
ACTGGCACGTGTTTGG	-0.293 kJ/mol
TTTGTCACGTGAAGTA	1.55 kJ/mol
ATATACACGTGTTAGT	0.0837 kJ/mol
GGCTTCACGTGTGGTT	0.753 kJ/mol
GTTTCCACGTGATGTA	1.46 kJ/mol
TGGGACACGTGGATTG	0.126 kJ/mol
TTTGCCACGTGCGTAT	-0.251 kJ/mol
TGTCGCACGTGGGGAT	-0.669 kJ/mol
GGGGCCACGTGACAGG	0 kJ/mol
TATTGCACGTGGCGGG	-0.669 kJ/mol
AGAGGCACGTGAGTTT	0.837 kJ/mol
GTGTGCACGTGTTGGC	0.502 kJ/mol
